# Some of the results follow.
# Assays:
# Assay in all cases: glycan array binding signal (z-score within array); higher = stronger binding
# Details in all cases: glycan notation: IUPAC condensed, linker removed
# [1] = molecular target: Gal(b1-4)GlcNAc(b1-6)Gal(b1-4)GlcNAc
# In short: (§1)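 Arrays were curated from the Consortium for Functional Glycomics database, 3228 in total, and kept only where the protein sequence was available. Binding is expressed as a within-array Z-score. This score was averaged across arrays of the same protein sequence at different concentrations or buffers and across linkers, and negative values can be read as non-binding.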
# [2] = molecular target: Gal(b1-4)GlcNAc(b1-6)GalNAc
# In short: as §1
# [3] = molecular target: Gal(b1-4)GlcNAc(b1-6)[Gal(b1-3)]GalNAc
# In short: as §1
# [4] = molecular target: Gal(b1-4)GlcNAc(b1-6)[Gal(b1-4)GlcNAc(b1-3)]GalNAc
# In short: as §1
# Gal(b1-4)GlcNAc6P = molecular target: Gal(b1-4)GlcNAc6P
# In short: as §1
# Gal(b1-6)Gal = molecular target: Gal(b1-6)Gal
# In short: as §1
# Gal3S(b1-3)GalNAc = molecular target: Gal3S(b1-3)GalNAc
# In short: as §1
# Gal3S(b1-3)GlcNAc = molecular target: Gal3S(b1-3)GlcNAc
# In short: as §1
# [5] = molecular target: Gal3S(b1-3)[Fuc(a1-4)]GlcNAc
# In short: as §1
# Gal3S(b1-4)Glc = molecular target: Gal3S(b1-4)Glc
# In short: as §1
# Gal3S(b1-4)Glc6S = molecular target: Gal3S(b1-4)Glc6S
# In short: as §1
# Gal3S(b1-4)GlcNAc = molecular target: Gal3S(b1-4)GlcNAc
# In short: as §1
# [6] = molecular target: Gal3S(b1-4)[Fuc(a1-3)]Glc6S
# In short: as §1
# [7] = molecular target: Gal3S(b1-4)[Fuc(a1-3)]GlcNAc
# In short: as §1
# [8] = molecular target: Gal3S(b1-4)[Fuc(a1-3)]GlcNAc6S
# In short: as §1
# Gal3S4S(b1-4)GlcNAc = molecular target: Gal3S4S(b1-4)GlcNAc
# In short: as §1
# Gal3S6S(b1-4)GlcNAc = molecular target: Gal3S6S(b1-4)GlcNAc
# In short: as §1
# Gal3S6S(b1-4)GlcNAc6S = molecular target: Gal3S6S(b1-4)GlcNAc6S
# In short: as §1
# Gal4S(b1-4)GlcNAc = molecular target: Gal4S(b1-4)GlcNAc
# In short: as §1
# Gal4S6S(b1-4)GlcNAc = molecular target: Gal4S6S(b1-4)GlcNAc
# In short: as §1
# Gal6P(b1-4)GlcNAc = molecular target: Gal6P(b1-4)GlcNAc
# In short: as §1
# Gal6S(b1-3)GlcNAc = molecular target: Gal6S(b1-3)GlcNAc
# In short: as §1
# Gal6S(b1-3)GlcNAc6S = molecular target: Gal6S(b1-3)GlcNAc6S
# In short: as §1
binder,measurement,setting,value
"EPL1 (Trichoderma atroviride), A0PCX2 (protein) MQLSNLFKLALFTAAVSADTVSYDTGYDDASRSLTVVSCSDGTNGLITRYHWQTQGQIPRFPYIGGAQAVAGWNSPNCGTCWKLTYSGKTIYVLAIDHTAAGFNIGLDAMNALTNGNAVALGRVSATASQVAVSNCGL",glycan array binding signal (z-score),[1],0.31
same,glycan array binding signal (z-score),[2],-0.071
same,glycan array binding signal (z-score),[3],-0.254
same,glycan array binding signal (z-score),[4],-0.124
same,glycan array binding signal (z-score),Gal(b1-4)GlcNAc6P,-0.183
same,glycan array binding signal (z-score),Gal(b1-6)Gal,-0.376
same,glycan array binding signal (z-score),Gal3S(b1-3)GalNAc,-0.08
same,glycan array binding signal (z-score),Gal3S(b1-3)GlcNAc,0.668
same,glycan array binding signal (z-score),[5],0.027
same,glycan array binding signal (z-score),Gal3S(b1-4)Glc,0.429
same,glycan array binding signal (z-score),Gal3S(b1-4)Glc6S,-0.233
same,glycan array binding signal (z-score),Gal3S(b1-4)GlcNAc,0.311
same,glycan array binding signal (z-score),[6],0.393
same,glycan array binding signal (z-score),[7],-0.154
same,glycan array binding signal (z-score),[8],0.172
same,glycan array binding signal (z-score),Gal3S4S(b1-4)GlcNAc,-0.341
same,glycan array binding signal (z-score),Gal3S6S(b1-4)GlcNAc,0.513
same,glycan array binding signal (z-score),Gal3S6S(b1-4)GlcNAc6S,0.395
same,glycan array binding signal (z-score),Gal4S(b1-4)GlcNAc,0.422
same,glycan array binding signal (z-score),Gal4S6S(b1-4)GlcNAc,0.159
same,glycan array binding signal (z-score),Gal6P(b1-4)GlcNAc,-0.624
same,glycan array binding signal (z-score),Gal6S(b1-3)GlcNAc,0.112
same,glycan array binding signal (z-score),Gal6S(b1-3)GlcNAc6S,0.192
